Experimental findings from the BET-seq Pho4 binding data (Le et al. 2018) are described below.

The other results are listed elsewhere or left out. These are noisy estimates, calculated here from bound and input reads.

The target in this assay is T1, Pho4 (S. cerevisiae) (UniProt P07270).
T1 sequence: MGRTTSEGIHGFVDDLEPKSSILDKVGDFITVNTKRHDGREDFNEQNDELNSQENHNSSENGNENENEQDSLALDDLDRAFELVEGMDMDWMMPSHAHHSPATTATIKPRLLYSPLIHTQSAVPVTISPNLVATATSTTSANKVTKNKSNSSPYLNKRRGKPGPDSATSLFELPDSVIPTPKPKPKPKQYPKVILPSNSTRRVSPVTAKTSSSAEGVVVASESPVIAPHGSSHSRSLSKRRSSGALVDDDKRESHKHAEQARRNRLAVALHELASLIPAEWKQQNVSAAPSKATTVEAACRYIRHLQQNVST
The experiment in a line: relative binding free energy (BET-seq); higher = weaker binding. Conditions: reference: library average.
Turning to AGTGACACGTGAATGT, the “relative binding free energy” value stood at 0.962 kJ/mol.

In the case of GTGTTCACGTGGTGCC, the “relative binding free energy” value came out at 0.377 kJ/mol. For AGGGTCACGTGCAGTA, the “relative binding free energy” value stood at 0.126 kJ/mol.

Take AGTGTCACGTGTGCAT: the “relative binding free energy” value was found to be 0.418 kJ/mol. GTAAACACGTGTTGGA: the “relative binding free energy” value is 0.209 kJ/mol. Turning to ATTGACACGTGTTCTA, the “relative binding free energy” value stood at 0.209 kJ/mol.

With TTATGCACGTGAATAT, the “relative binding free energy” value was 0.335 kJ/mol. Consider TAAGCCACGTGGTGGT, for which the “relative binding free energy” value was -0.711 kJ/mol. As for GGATGCACGTGTGTAA, the figure is 0.46 kJ/mol; as for ATGGTCACGTGAGAGG, 1.05 kJ/mol.

As to GGGATCACGTGATGTG, the “relative binding free energy” value was determined as 1.05 kJ/mol. Take GTTCGCACGTGAGTGA: the “relative binding free energy” value was found to be 0.293 kJ/mol. With GCACTCACGTGTGGGG the figure was 1.26 kJ/mol; with AGAGGCACGTGCTTTG, -0.92 kJ/mol. In the case of TGCTTCACGTGCTGTG, the “relative binding free energy” value came out at 0.837 kJ/mol. For TTCGGCACGTGCGGGG, the “relative binding free energy” value was -0.669 kJ/mol. Consider TAATTCACGTGTCTTT, for which the “relative binding free energy” value was 1.13 kJ/mol. As for TCTGGCACGTGGGCGG, the figure is -0.837 kJ/mol; as for TAAGTCACGTGTGTGT, 0.209 kJ/mol; as for AGTTTCACGTGGGCAG, 0.377 kJ/mol. TTTGACACGTGGGTTT: the “relative binding free energy” value is -0.0418 kJ/mol. As for AGAATCACGTGGCGGT, the figure is 0.502 kJ/mol; as for AGGGCCACGTGTTGGG, -0.502 kJ/mol; as for GCTAACACGTGGGGTG, -0.544 kJ/mol. For GATAACACGTGTGGAG, the “relative binding free energy” value was determined as 0.418 kJ/mol. Regarding ATTGGCACGTGAAGCG, the “relative binding free energy” value stood at 0.544 kJ/mol. As for GGGCGCACGTGTGGTA, the “relative binding free energy” value worked out at 0.0418 kJ/mol. With GACATCACGTGTGGTT the figure was 0.879 kJ/mol; with AAGGGCACGTGGCGGC, -0.586 kJ/mol.

For the sequence TTAGTCACGTGGGAGA, the “relative binding free energy” value was -0.167 kJ/mol. As to TTCGGCACGTGGCGCG, the “relative binding free energy” value is -0.209 kJ/mol. As for AAGTGCACGTGTTACG, the figure is -0.167 kJ/mol; as for AATGTCACGTGTGATA, 0.46 kJ/mol.

In the case of ATGAGCACGTGGGGTG, the “relative binding free energy” value is -1.38 kJ/mol. With GGAGTCACGTGTGGGG the figure was 1 kJ/mol. With CAGGGCACGTGCGGTT, the “relative binding free energy” value is -0.753 kJ/mol. As for CAGGCCACGTGGGTTG, the figure is -0.92 kJ/mol; as for GCGTACACGTGTGTAG, 0.837 kJ/mol; as for GGTAGCACGTGGGGCA, -0.837 kJ/mol.

For the sequence TTTTTCACGTGGGTCG, the “relative binding free energy” value is 0.628 kJ/mol. As to CGTTACACGTGGGGTT, the “relative binding free energy” value was -0.418 kJ/mol.

TGATTCACGTGTGTAG: the “relative binding free energy” value was determined as 0.962 kJ/mol. On to TATATCACGTGACTGG, for which the “relative binding free energy” value came out at 1.05 kJ/mol. On to GCTTTCACGTGTCGTG, for which the “relative binding free energy” value is 1.42 kJ/mol.

For TCGGTCACGTGTATGG, the “relative binding free energy” value worked out at 0.0837 kJ/mol. In the case of GGGAGCACGTGGGTGA, the “relative binding free energy” value is -0.711 kJ/mol. For GCGGGCACGTGGGTTT, the “relative binding free energy” value is -0.502 kJ/mol. With TTGTTCACGTGTTTCA, the “relative binding free energy” value was 1.46 kJ/mol.

Turning to ATTCGCACGTGATGGT, the “relative binding free energy” value was -0.0837 kJ/mol. As for TTTTACACGTGGCAGG, the “relative binding free energy” value was 0.586 kJ/mol. As for ATAATCACGTGTCGGT, the “relative binding free energy” value came out at 0.502 kJ/mol.

Consider TGCAGCACGTGGTTAT, for which the “relative binding free energy” value was -0.837 kJ/mol. TTAGACACGTGGGCGA: the “relative binding free energy” value was -0.544 kJ/mol. CCGTTCACGTGATGTT: the “relative binding free energy” value turned out to be 1.84 kJ/mol. With GGCTACACGTGGTGTA, the “relative binding free energy” value is -0.126 kJ/mol. With CGTGACACGTGTATGG the figure was 0.293 kJ/mol.

In the case of TTAAGCACGTGGGCAT, the “relative binding free energy” value is -0.879 kJ/mol. Regarding TTTCACACGTGAGGGC, the “relative binding free energy” value was determined as 2.13 kJ/mol. As to GAAGTCACGTGAGTTG, the “relative binding free energy” value was 0.962 kJ/mol. With TAGGTCACGTGGTCTA the figure was -0.209 kJ/mol. With CTATACACGTGGTGGA the figure was -0.167 kJ/mol; with CGGTTCACGTGGGCCT, 1.38 kJ/mol; with TGGCGCACGTGCTGGG, -0.962 kJ/mol. On to TATGTCACGTGATAAA, for which the “relative binding free energy” value is 0.418 kJ/mol.

On to CCTGTCACGTGGTGTA, for which the “relative binding free energy” value worked out at 0.167 kJ/mol. Take TTTGGCACGTGCGGCT: the “relative binding free energy” value is -1.17 kJ/mol.

In the case of GGGGGCACGTGCGTGT, the “relative binding free energy” value was -0.586 kJ/mol. For TGCATCACGTGGGCTT, the “relative binding free energy” value was 0.418 kJ/mol. Turning to CGCGGCACGTGTGTAT, the “relative binding free energy” value was 0 kJ/mol. With AAGATCACGTGGGGGC, the “relative binding free energy” value was determined as 0 kJ/mol. As for GGTAACACGTGATGGC, the “relative binding free energy” value was determined as 0.586 kJ/mol. Turning to TGCTCCACGTGGGTTT, the “relative binding free energy” value was -0.293 kJ/mol. Take AGGAGCACGTGAGCAG: the “relative binding free energy” value stood at 0.837 kJ/mol. As to GAGGACACGTGTGGGT, the “relative binding free energy” value was found to be 0.586 kJ/mol. Consider ATTTTCACGTGGTGCT, for which the “relative binding free energy” value was 1.17 kJ/mol. With GCGCGCACGTGTTGTG the figure was -0.46 kJ/mol. As to TCTTGCACGTGGGGCT, the “relative binding free energy” value was -0.418 kJ/mol. Consider GGTCGCACGTGTTTGG, for which the “relative binding free energy” value is 0.293 kJ/mol. In the case of GATTTCACGTGGTTTC, the “relative binding free energy” value turned out to be 0.962 kJ/mol. Consider TTTCTCACGTGAGGGA, for which the “relative binding free energy” value was found to be 1.42 kJ/mol.

Turning to GTGTTCACGTGCCGGA, the “relative binding free energy” value amounted to 0.753 kJ/mol. With TATAGCACGTGTTGAT the figure was -0.0418 kJ/mol; with TGGTGCACGTGGAGTC, 0.167 kJ/mol; with GTGCGCACGTGGAGAT, 0 kJ/mol. CGGGTCACGTGGTAAG: the “relative binding free energy” value was determined as 0.795 kJ/mol.

With CGGGGCACGTGCGGGG, the “relative binding free energy” value is -1.17 kJ/mol. Take CTAGTCACGTGTTCGG: the “relative binding free energy” value turned out to be 0.377 kJ/mol. As for AGTTTCACGTGGATTT, the “relative binding free energy” value came out at 1.42 kJ/mol. Turning to ATTATCACGTGAGCTT, the “relative binding free energy” value amounted to 0.92 kJ/mol. As for TTTGGCACGTGTTGAC, the “relative binding free energy” value was -0.167 kJ/mol. For the sequence GGCTGCACGTGTTGGT, the “relative binding free energy” value stood at 0.0418 kJ/mol.

For CTTAGCACGTGTCGGG, the “relative binding free energy” value is -0.251 kJ/mol.

On to TAGTTCACGTGTGTAG, for which the “relative binding free energy” value was found to be 0.753 kJ/mol. For AGTTTCACGTGTCAGG, the “relative binding free energy” value stood at 1.63 kJ/mol. As for TGTTGCACGTGCGTAG, the figure is -0.251 kJ/mol; as for GTTTCCACGTGCGGTG, 0.586 kJ/mol; as for GTGGTCACGTGATATC, 1.13 kJ/mol. Turning to GTACGCACGTGGTAAG, the “relative binding free energy” value was 0.209 kJ/mol. As for TTATTCACGTGTGGAA, the figure is 1.13 kJ/mol; as for CTGTACACGTGCGGGG, -0.502 kJ/mol; as for GTAAACACGTGTGAGA, 0.753 kJ/mol. With GCTGCCACGTGGGGTT, the “relative binding free energy” value is -0.879 kJ/mol. On to GAGTGCACGTGCGAGT, for which the “relative binding free energy” value is 0.0837 kJ/mol. For ATTACCACGTGGTAGT, the “relative binding free energy” value was -0.711 kJ/mol. With TTTTGCACGTGCACGT the figure was -0.502 kJ/mol; with CGGGCCACGTGTGATG, 0.502 kJ/mol; with GGCGTCACGTGTGCGA, 0.502 kJ/mol. AGAAGCACGTGATGTA: the “relative binding free energy” value amounted to 0.335 kJ/mol. As for CTTTGCACGTGTATAG, the “relative binding free energy” value stood at 0 kJ/mol. As for AGTGGCACGTGTAGAA, the figure is -0.167 kJ/mol; as for AATTGCACGTGTATTT, 0.377 kJ/mol. ATTCGCACGTGGGTTT: the “relative binding free energy” value is -0.586 kJ/mol.

In the case of CCTGACACGTGAGGGG, the “relative binding free energy” value came to 0.92 kJ/mol. With CGCGTCACGTGGTTTA the figure was 0.335 kJ/mol; with TGAGGCACGTGTCGTC, 0.251 kJ/mol.
